# Measurements taken from PMC12375107.
# Chains of the proteins cited; added tags and fusions are not shown. Lines headed by an entry give the natural chain unless they say otherwise; changes in a name come on top.
# UniProt Q86WV6: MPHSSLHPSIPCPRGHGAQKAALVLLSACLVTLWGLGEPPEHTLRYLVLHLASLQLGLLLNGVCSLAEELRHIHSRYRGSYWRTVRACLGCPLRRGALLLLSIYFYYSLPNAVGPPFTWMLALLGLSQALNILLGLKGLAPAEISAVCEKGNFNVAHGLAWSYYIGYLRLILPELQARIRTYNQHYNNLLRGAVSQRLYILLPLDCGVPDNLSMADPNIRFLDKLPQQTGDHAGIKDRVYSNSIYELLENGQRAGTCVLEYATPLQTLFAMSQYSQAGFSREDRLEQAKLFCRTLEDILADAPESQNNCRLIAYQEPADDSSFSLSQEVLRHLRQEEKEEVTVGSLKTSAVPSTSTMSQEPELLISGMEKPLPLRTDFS
# UniProt Q8N884: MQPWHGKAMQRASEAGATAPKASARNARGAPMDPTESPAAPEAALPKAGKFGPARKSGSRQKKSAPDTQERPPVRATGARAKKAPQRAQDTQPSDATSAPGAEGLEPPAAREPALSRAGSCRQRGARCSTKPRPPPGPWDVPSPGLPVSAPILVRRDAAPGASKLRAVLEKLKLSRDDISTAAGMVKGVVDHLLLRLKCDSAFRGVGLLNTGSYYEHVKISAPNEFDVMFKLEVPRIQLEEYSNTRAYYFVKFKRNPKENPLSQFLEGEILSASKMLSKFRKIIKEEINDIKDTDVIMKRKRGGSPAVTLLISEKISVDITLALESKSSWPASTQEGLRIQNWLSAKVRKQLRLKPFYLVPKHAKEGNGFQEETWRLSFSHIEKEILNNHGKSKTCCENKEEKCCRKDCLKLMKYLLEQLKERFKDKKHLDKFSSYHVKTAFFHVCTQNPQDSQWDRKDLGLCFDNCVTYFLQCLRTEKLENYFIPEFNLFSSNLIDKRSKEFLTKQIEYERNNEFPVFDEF
# Substitutions are numbered along the chain they refer to. No constants are given. Whether binding was seen depends on the method and setting. For some assays here: In cells and extracts the contact can be indirect. Some binding calls cover weakened binding; strength is not graded here. For some assays here: Tags and fused reporters may be left off the sequences shown.
# Columns and labels:
# [1] = molecular target: T1, Flag-tagged CAD (caspase-activated DNase) (human) (UniProt O76075); experiment: co-IP; exogenous (transfected) proteins in lysates of HEK293T, HCT116 or HT29 cells; IP lysis buffer 25 mM HEPES, 150 mM NaCl, 1 mM EDTA, 1% NP-40, 10% glycerol, pH 7.4; antibody against Flag, MYC or HA, Protein A/G magnetic beads; western blotting
# T1 sequence: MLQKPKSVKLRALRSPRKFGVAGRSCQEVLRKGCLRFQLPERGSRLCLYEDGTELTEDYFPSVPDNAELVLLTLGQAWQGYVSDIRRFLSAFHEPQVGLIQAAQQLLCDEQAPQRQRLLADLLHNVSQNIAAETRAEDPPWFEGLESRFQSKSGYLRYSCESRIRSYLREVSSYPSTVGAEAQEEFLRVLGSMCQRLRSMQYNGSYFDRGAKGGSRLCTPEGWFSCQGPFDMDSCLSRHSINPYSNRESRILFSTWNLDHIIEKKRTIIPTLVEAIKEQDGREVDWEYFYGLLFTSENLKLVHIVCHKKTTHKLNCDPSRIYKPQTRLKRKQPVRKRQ
# [2] = molecular target: T1, Flag-tagged CAD (caspase-activated DNase) (human); experiment: co-IP; HEK293T cells; the pair co-expressed with a third protein (CAD, ICAD or ICAD-NTD), in part at different amounts; western blotting
# [3] = molecular target: T2, CAD C26A (human) (UniProt O76075); experiment: co-IP; exogenous (transfected) proteins in lysates of HEK293T, HCT116 or HT29 cells; IP lysis buffer 25 mM HEPES, 150 mM NaCl, 1 mM EDTA, 1% NP-40, 10% glycerol, pH 7.4; antibody against Flag, MYC or HA, Protein A/G magnetic beads; western blotting
# T2 sequence: T1 sequence with C26A
# [4] = molecular target: T3, CAD Q27A (human) (UniProt O76075); experiment: as above
# T3 sequence: T1 sequence with Q27A
# [5] = molecular target: T4, CAD R24A (human) (UniProt O76075); experiment: as above
# T4 sequence: T1 sequence with R24A
# [6] = molecular target: T5, CAD-H260A (human) (UniProt O76075); experiment: as above
# T5 sequence: T1 sequence with H260A
# [7] = molecular target: T6, CAD^RCQ (R24A, C26A, and Q27A) (human) (UniProt O76075); experiment: as above
# T6 sequence: T1 sequence with R24A, C26A, Q27A
# [8] = molecular target: T7, GST-tagged CAD (human) (UniProt O76075); experiment: pull-down; purified GST-tagged CAD or STING incubated with untagged STING or CAD and GST-conjugated beads at 4 °C overnight; western blotting; both purified
# T7 sequence: T1 sequence
Substance,binding [1],other results
STING G166A (from UniProt Q86WV6 1-379),binds,
STING V239A (from UniProt Q86WV6 1-379),binds,
tagged STING (from UniProt Q86WV6 1-379),binds,binding [2]: binds; binding [3]: binds; binding [4]: binds; binding [5]: binds; binding [6]: binds; binding [7]: no binding
untagged STING (from UniProt Q86WV6 1-379),,binding [8]: binds

# More lines, main results first:
binding [1],Substance,other results
binds,STING D237A (from UniProt Q86WV6 1-379),
no binding,STING-R284S (from UniProt Q86WV6 1-379),
no binding,"STING^GDV (G166R, D237A, and V239F) (from UniProt Q86WV6 1-379)",
no binding,myc- or HA-tagged cGAS (from UniProt Q8N884 1-522) (enzyme),
